{
  "source": "PubChem BioAssay AID686979",
  "about": "(National Center for Advancing Translational Sciences (NCATS), 2013)",
  "note": "In all, about 420,000 compounds went through this assay and about 50,000 (12%) were called active. Inconclusive means that the source gave no clear call. Such entries were picked first, then a sample of the others. Calls follow the shape of the dose curve; as a rule, active = well fitted inhibition curve with a large enough effect; inconclusive = small, poorly fitted or top-dose-only effect; inactive = flat fitted curve, though single readings scatter. Potencies of inconclusive entries are left out as doubtful fits.",
  "data": [
    {"test": "qHTS for Inhibitors of human tyrosyl-DNA phosphodiesterase 1 (TDP1): qHTS in cells in presence of CPT; also: nearly all actives have a fitted effect of over 55% in size; also: potency is read from the fitted curve at half-maximal effect; tags tell the direction and shape of the fitted curve; as to activity change, negative = growth inhibition: % is scaled to controls: 0 for no effect and ±100 for the full control effect", "settings": "chicken DT40 Tdp1-/-;hTDP1 cells + 20 nM CPT, ATP luminescence, 48 h; activity change, negative = growth inhibition: at 46.2 µM (top of the series)", "outline": "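Cell growth measured by CellTiter-Glo luminescence after a minimum 48 h, 37 C compound exposure with 20 nM CPT in Tdp1-knockout DT40 cells stably expressing hTDP1, seeded 400/well; qHTS titration format.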", "values": [
      {"molecule": "CCc1ccc(OCC(=O)NC(Cc2c[nH]c3ccccc23)C(=O)O)cc1", "note": "(configuration not stated)", "activity change, negative = growth inhibition": "inactive: -5.99%"},
      {"molecule": "C/C(=N\\NC(=O)c1csc(C)c1C)c1ccco1", "Potency": "active: 10.3 µM"},
      {"molecule": "CC(C)C(=O)Nc1ccc2nc(SCC(=O)N3CCCC3)sc2c1", "Potency": "inconclusive [inhibitor, single point]"},
      {"molecule": "Cc1ccc(SCCNC(=O)c2ccc(C)c(S(=O)(=O)Nc3cccc(C)c3)c2)cc1", "Potency": "inconclusive [inhibitor, partial curve, poor fit]"},
      {"molecule": "CN(CC(=O)Nc1cccc(F)c1)C(=O)c1ccccc1OCC(=O)Nc1cccc(C(F)(F)F)c1", "Potency": "inconclusive [inhibitor, single point]"},
      {"molecule": "CC(C)(C)OC(=O)N1CCC(NC(=O)c2[nH]cnc2C(=O)N[C@@H](Cc2ccccc2)C(=O)OCc2ccccc2)CC1", "Potency": "inconclusive [inhibitor, single point]"},
      {"molecule": "Cc1c(CCC(=O)NCCc2ccccc2)c(=O)oc2c(C)c(O)ccc12", "activity change, negative = growth inhibition": "inactive: -6.87%"},
      {"molecule": "COc1ccc(Cl)cc1C(=O)Nc1ccccc1N1CCN(C(=O)C(C)C)CC1", "Potency": "active: 29.1 µM"},
      {"molecule": "O=[N+]([O-])c1ccc(N2CCOCC2)cc1O", "Potency": "inconclusive [inhibitor, single point]"},
      {"molecule": "CCc1ccc(N2CC(C(=O)OCC(=O)NC3CC3)CC2=O)cc1", "note": "(configuration not stated)", "activity change, negative = growth inhibition": "inactive: -10.8%"},
      {"molecule": "Cc1ccc(C(C)C)c(OCCSc2nc(-c3ccccc3F)nc3cc(=O)[nH]n23)c1", "Potency": "inconclusive [inhibitor, single point]"},
      {"molecule": "CN(CC(=O)Nc1ccc(F)cc1)CC(=O)N1CCc2ccccc21", "activity change, negative = growth inhibition": "inactive: -9.24%"},
      {"molecule": "OC1=C(O)c2nc3cc(F)ccc3nc21", "activity change, negative = growth inhibition": "inactive: 5.48%"},
      {"molecule": "CCc1ccc(NC(=O)c2ccc(CN3CC(=O)N4CCCCC4C3=O)cc2)cc1", "note": "(configuration not stated)", "Potency": "inconclusive [inhibitor, single point]"},
      {"molecule": "Cc1ccccc1N(CC(=O)NCCSc1ccccn1)S(=O)(=O)c1ccccc1", "activity change, negative = growth inhibition": "inactive: -4.97%"},
      {"molecule": "CC(C)(Cc1cccc(CC(C)(C)C(=O)O)c1)C(=O)O", "Potency": "inconclusive [inhibitor, partial curve, poor fit]"},
      {"molecule": "CC(=O)OCC1OC(n2ccc3ccccc32)C(OC(C)=O)C(OC(C)=O)C1OC(C)=O", "note": "(configuration not stated)", "Potency": "inconclusive [inhibitor, single point]"},
      {"molecule": "COc1ccc(OC)c(NC(=O)CSc2ccc(-c3cccs3)nn2)c1", "Potency": "inconclusive [inhibitor, single point]"},
      {"molecule": "CCOC(=O)C1CCCCN1Cc1ccc(-c2ccccc2)cc1", "note": "(configuration not stated)", "Potency": "inconclusive [inhibitor, partial curve]"},
      {"molecule": "Cc1cccc(-n2ncc3c2CCCC3NC(=O)c2cccs2)c1C", "note": "(configuration not stated)", "Potency": "inconclusive [inhibitor, single point]"},
      {"molecule": "COc1cccc(CNC(=O)c2cc(C)nc3c2c(C)nn3-c2ccc(C)cc2)c1", "Potency": "inconclusive [inhibitor, single point]"},
      {"molecule": "Cc1cc(OCCCCCn2ccnc2)cc(C)c1Cl", "Potency": "inconclusive [inhibitor, single point]"},
      {"molecule": "CC(C)NC1(C(N)=O)CCN(Cc2ccccc2)CC1", "activity change, negative = growth inhibition": "inactive: 12.4%"},
      {"molecule": "CCN(C(=O)CSc1nc(N)cc(=O)[nH]1)C1CCS(=O)(=O)C1", "note": "(configuration not stated)", "activity change, negative = growth inhibition": "inactive: -3.6%"},
      {"molecule": "COc1cccc(OCc2nc3ccccc3n2CCOc2ccc(C)cc2)c1", "Potency": "active: 23.1 µM"},
      {"molecule": "O=S(=O)(NCC(c1ccco1)N1CCN(c2ccccc2F)CC1)c1ccccc1", "note": "(configuration not stated)", "activity change, negative = growth inhibition": "inactive: 0.448%"},
      {"molecule": "COc1ccc(CC(=O)NCC2CCCN(Cc3cccc(C(F)(F)F)c3)C2)cc1", "note": "(configuration not stated)", "Potency": "inconclusive [inhibitor, partial curve, poor fit]"},
      {"molecule": "NC(=O)c1sc2nc3c(c(-c4ccccc4)c2c1N)CCC3", "Potency": "inconclusive [inhibitor, partial curve]"},
      {"molecule": "CC(=O)c1cccc(NC(=O)c2ccc3c(c2)OCO3)c1", "Potency": "inconclusive [inhibitor, single point]"},
      {"molecule": "O=S(=O)(NCc1cn2ccsc2n1)c1cccs1", "activity change, negative = growth inhibition": "inactive: -1.75%"},
      {"molecule": "CCc1ccc(NC(=O)COc2coc(CN3CCc4ccccc4C3)cc2=O)cc1", "Potency": "inconclusive [inhibitor, single point]"},
      {"molecule": "O=C(O)C1CCCN1C(=O)C1CCN(S(=O)(=O)c2cccc(C(F)(F)F)c2)CC1", "note": "(configuration not stated)", "activity change, negative = growth inhibition": "inactive: -2.04%"},
      {"molecule": "CCN1CCN(S(=O)(=O)c2ccc(Cl)c(C(=O)N(C)Cc3ccco3)c2)CC1", "Potency": "inconclusive [inhibitor, single point]"},
      {"molecule": "CCOc1ccc(/C=C2\\SC(=S)N(CCC(=O)Nc3ccccc3C(=O)O)C2=O)cc1", "activity change, negative = growth inhibition": "inactive: 3.57%"},
      {"molecule": "COc1ccc2[nH]cc(CCNC(C)=O)c2c1", "Potency": "inactive"},
      {"molecule": "Cc1cc(OCC(=O)Nc2ccccc2N2CCCC2)ccc1C(C)C", "Potency": "inconclusive [inhibitor, single point]"},
      {"molecule": "CCOc1ccc(C(=O)NC(C(=O)NCc2ccccc2OC)C(C)C)cc1", "note": "(configuration not stated)", "Potency": "inconclusive [inhibitor, single point]"},
      {"molecule": "Cc1ccc(OCC(=O)Nc2cc(-c3nn4c(C)nnc4s3)ccc2C)cc1", "Potency": "inconclusive [inhibitor, full curve]"},
      {"molecule": "O=C(CCCOc1ccc(Cl)cc1Cl)n1nnc2ccccc21", "Potency": "inconclusive [inhibitor, partial curve]"},
      {"molecule": "COc1c(C)cc(C(O)c2ncc(-c3cccc(F)c3)[nH]2)cc1C", "note": "(configuration not stated)", "Potency": "inconclusive [inhibitor, single point]"},
      {"molecule": "Cc1ccccc1NC(=O)c1oc(=O)c2ccccc2c1-c1ccccc1", "activity change, negative = growth inhibition": "inactive: -1.59%"},
      {"molecule": "CC(C)(C)NC(=O)Cn1c(=O)oc2ccc(Cl)cc21", "activity change, negative = growth inhibition": "inactive: 0.16%"},
      {"molecule": "CCn1c(C(=O)NCc2ccc(F)cc2)cc2oc3ccccc3c21", "Potency": "active: 20.6 µM"},
      {"molecule": "CC[C@@]1(C(=O)OC)N[C@H](CN(C)C(=O)NC(C)C)[C@@H]2C(=O)N(C)C(=O)[C@@H]21", "activity change, negative = growth inhibition": "inactive: 0.6%"},
      {"molecule": "CN(C)CCNC(=O)C(=O)NCC(c1ccc2c(c1)OCO2)N1CCN(c2ccc(F)cc2)CC1", "note": "(configuration not stated)", "activity change, negative = growth inhibition": "inactive: -14.9%"},
      {"molecule": "O=C(O)CC(Cc1ccc(Cl)cc1)C(=O)NCc1ccccc1", "note": "(configuration not stated)", "activity change, negative = growth inhibition": "inactive: 4.36%"},
      {"molecule": "CCOC(=O)c1c(NC(=O)C(C)Sc2cn(CCNC(=O)c3c(F)cccc3F)c3ccccc23)sc2c1CCC2", "note": "(configuration not stated)", "Potency": "active: 20.6 µM"}
    ]}
  ]
}
